# Measurements taken from PubChem BioAssay AID686978 (National Center for Advancing Translational Sciences (NCATS), 2013).
# In all, about 420,000 compounds went through this assay and about 64,000 (15%) were called active. This list was built around the results that the source calls inconclusive (neither active nor inactive); the mix of calls is not that of the screen. The call rests on the fitted dose curve; in most records, active means well fitted inhibition curve with a large enough effect; inconclusive means small, poorly fitted or top-dose-only effect; inactive means flat fitted curve, though single readings scatter. Potencies of inconclusive entries are left out as doubtful fits.
# Test: qHTS for Inhibitors of human tyrosyl-DNA phosphodiesterase 1 (TDP1): qHTS in cells in absence of CPT; further: nearly all actives have a fitted effect of over 55% in size
# Conditions: DT40 Tdp1-/- hTDP1 cells, no CPT, ATP luminescence, 48 h; activity change, negative = growth inhibition: at 46.2 µM (top of the series) unless noted
# In short: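 Luminescent ATP content (CellTiter-Glo) served as the growth readout. Knockout chicken DT40 cells expressing human TDP1 were exposed to compounds without camptothecin for a minimum 48 hr at 37 °C.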
# On the % scale 0 is the no-effect control and ±100 the full control effect; potency means the concentration at half of the fitted maximal effect; tags describe the fitted curve by direction and shape.
Structure (SMILES),Potency,"activity change, negative = growth inhibition"
CCOCCCNC(=O)C(c1ccc(OC)cc1)N(Cc1cccs1)C(=O)c1ccccn1 (stereo unspecified),"inconclusive [inhibitor, single point]",
Cc1nn(CC(=O)N2CCC(C)CC2)c(=O)c2cccn12,"inconclusive [inhibitor, partial curve]",
Cc1ccc(C2=NN(S(=O)(=O)c3ccccc3)C(c3ccccc3O)C2)cc1 (stereo unspecified),"inconclusive [inhibitor, single point]",
O=C(Nc1cccc(NC(=O)c2ccccc2[N+](=O)[O-])c1)c1ccccc1Cl,,inactive: -14.8%
O=C(Nc1ccc2nc3n(c(=O)c2c1)CCCCC3)C(=O)N1CCN(c2ccccc2)CC1,"inconclusive [inhibitor, single point]",
O=C(CN1CCN(S(=O)(=O)c2ccc(F)c(Cl)c2)CC1)N1CCOCC1,,inactive: 4.04%
Cc1cc(-n2c(C)cc(C(=O)CSc3nnnn3-c3ccccc3)c2C)no1,"inconclusive [inhibitor, partial curve]",
CCN(CC(=O)NCc1ccc(Cl)cc1)C(=O)c1cccc(S(=O)(=O)Nc2ccc(OC)cc2)c1,active: 10.3 µM,
NS(=O)(=O)c1cccc(NC(=O)COC(=O)/C=C/c2nc3ccccc3s2)c1,,inactive: -25.5%
CC(C)CC(=O)NC(=S)Nc1ccc(CN2CCOCC2)cc1,,inactive: -20.5%
CCC(Sc1nc2ccsc2c(=O)n1Cc1ccc(C(=O)O)cc1)C(=O)Nc1ccc(Cl)cc1 (stereo unspecified),,inactive: -5.62%
COC(=O)c1ccc(C2C3=C(Nc4nnnn42)c2ccccc2OC3)cc1 (stereo unspecified),"inconclusive [inhibitor, single point]",
c1ccc2sc(SN3CCOCC3)nc2c1,"inconclusive [inhibitor, partial curve]",
O=C(O)Cc1ccc2c(c1)Cc1cccnc1O2,,inactive: -23.6%
COCCn1c(C(=O)N2CCCC2)cc2c1C[C@H]1CN(C(=O)c3ccccc3)[C@@](Cc3ccc(F)cc3)(C(=O)OC)[C@@H]21,"inconclusive [inhibitor, single point]",
COc1ccc(-c2ccc([C@H]3[C@H]4C=CC[C@@H](C)[C@@H]4C(=O)N3Cc3ccccc3)c(F)c2)cc1C,active: 14.6 µM,
CCOC(=O)C1=CN(Cc2ccco2)S(=O)(=O)NC1c1cccc(OC)c1 (stereo unspecified),,inactive: -26.8%
COc1cc(/C=N/NC(=O)c2cccs2)ccc1O,,inactive: 1.19%
Cc1ccc(N/C=C/C(=O)c2ccccc2)cc1C,,inactive: -14%
Cc1ccc(N2C(=O)[C@@H]3C(C(=O)C(c4ccccc4)c4ccccc4)=NN[C@@H]3C2=O)cc1,,inactive: -24.2%
COCCn1c(C)cc(C(=O)CSc2nc3ccccc3o2)c1C,"inconclusive [inhibitor, single point]",
